Experimental data published in a collection of fitness landscapes (doi:10.1016/j.celrep.2020.107928).
Whole data set: some 81,000 sequences, median “one-hybrid fitness for binding parS DNA” near -0.17, cut for the highest 2% near 0.51. The list shows a part of the results.

B1: Caulobacter ParB omega fusion; a variant is named by its letters at X, in order, B8GW30 (parent)
chain: MESVVVGEPGMSEGRRGLGRGLSALLGEVDAAPAQAPGEQLGGSREAPIEILQRNPDQPRRTFREEDLEDLSNSIREKGVLQPILVRPSPDTAGEYQIVAGERAWRAAQRAGLKTVPIMVRELDDLAVLEIGIIENVQRADLNVLEEALSYKVLMEKFERTQENIAQTIGKSXSHVANXMRLLXLPDEVQSYLVSGELTAXHARAIAAAADPVALAKQIIEGGLSVRETEALARKAPNLSAGKSKGGRPPRVKDTDTQALESDLSSVLGLDVSIDHRGSTGTLTITYATLEQLDDLCNRLTRGI

Variants of: B1
Assay: one-hybrid fitness for binding parS DNA (scaled: cognate 1, non-cognate 0); higher = stronger binding
Conditions: with parS DNA site
In short: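 Fitness is the rescaled log change in variant-to-wild-type read ratio, measured by Illumina sequencing of plasmids before and after bacterial one-hybrid selection. The scale puts cognate at 1 and non-cognate at 0. Selection of Caulobacter ParB libraries, four specificity codons randomised, took place in E. coli USO with a HIS3 reporter, site 19 bp from the promoter, over 48 hours at 37°C on M9-minus-histidine with 0.1 mM IPTG and 5 mM 3-AT.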

one-hybrid fitness for binding parS DNA, ≤ 0.2:
AFQL
QSRM
FSHY
AAMF
DVSR
LIPP
SINM
PRSA
AITK
RYEW
SCGV
WPWR
VQLP
SEDS
PYGE
YCCG
QKFA
ARWR
RMGR
PKHD
LTNG
MHLC
TIPI
RIEI
EMLG
IYFF
DFYR
PIES
TPKG
QTDM
ASRD
PSWQ
VQIC
GENW
CNLG
KEVK
HKYD
QRPI
QMAI
EYYG
EPPR
TTHA
SIFC
WWNK
YCYR
PTTP
THTD
SSSN
PDHA
IDLT
CIQD
DNMS
WTLP
TNVD
AQIF
DMTF
HSAC
TINT
ESPF
GATC
WPIS
TKLV
VAIW
TYLQ
DLTL
MTHW
QTIM
YTIM
QPVW
QSIN
KCHG
QDQY
MLFR
GVYG
LNFC
HQMP
MLHG
HMIV
IRIT
FHMG
TLWT
PSPM
IGDC
RFIR
KVMK
SPDW
GTIT
SQRA
MRSC
AGLP
YHKC
SIMT
DRLD
TNVI
GVPQ
FYIR
DTVR
PKKL
PVSD
TAQS
LKYR
TALM
QGQA
SNQC
TNCT
QHWN
VYSE
PMVD
TTFA
RHMQ
TKPL
HERM
STIS
FNSY
PAHA
KDKW
FKTI
DREE
GIFG
NYMG
SVKG
FGYC
TLHE
LNQQ
HYRS
PWPR
KSSH
QEAV
QLGP
VAVV
KNGC
TRKW
PSAS
HHGA
GWLR
HGSV
STSF
RFQL
RMTI
FWPS
FASR
YMPV

one-hybrid fitness for binding parS DNA, 0.559:
RYDA

one-hybrid fitness for binding parS DNA, 0.672:
RGMS

one-hybrid fitness for binding parS DNA, 0.988:
RMGS

one-hybrid fitness for binding parS DNA, 0.214:
RMSQ

one-hybrid fitness for binding parS DNA, 0.329:
RQNH

one-hybrid fitness for binding parS DNA, 0.967:
RHHG

one-hybrid fitness for binding parS DNA, 0.901:
RIIC

one-hybrid fitness for binding parS DNA, 0.472:
RAHY

one-hybrid fitness for binding parS DNA, 0.828:
RQVC

one-hybrid fitness for binding parS DNA, 0.934:
RLIG

one-hybrid fitness for binding parS DNA, 0.923:
RCST
